Assay results as given in PubChem BioAssay AID1347073 (National Center for Advancing Translational Sciences (NCATS), 2019).
Screen size: about 45,000 compounds; about 200 (0.44%) were called active. About 7% were inconclusive and are not listed. The call rests on the fitted dose curve; in most records, active means well fitted activation curve with a large enough effect; inconclusive means small, poorly fitted or top-dose-only effect; inactive means no such curve, though single readings can be large or run the other way. The list shows a part of the results.

Experiment: qHTS of TDP-43 Inhibitors: NCGC Sytravon Library Screen; further: 0% is about no effect; nearly all actives have a fitted effect of over 55% in size
Details: yeast TDP-43 toxicity rescue, BacTiter-Glo growth, 24 h; series mostly up to 46.1 µM; growth rescue (activation): at the top concentration
Procedure, shortened: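 TDP-43-expressing yeast, pregrown in raffinose, seeded at OD600 0.02 in galactose medium with compound for 24 hr at 30 deg C. Growth read by BacTiter-Glo luminescence, so rescue of toxicity appears as activation.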

| SMILES | growth rescue (activation) |
| --- | --- |
| CC(C)COC(=O)C(N)C(C(=O)OCC(C)C)c1ccccc1 (stereo not drawn) | inactive: 16.1% |
| Cc1c(C(=O)O)sc2nc(/C=C/c3cccc(O)c3)[nH]c(=O)c12 | inactive: -1.49% |
| O=[N+]([O-])c1ccc(N/N=C/c2cccc(O)c2)cc1 | inactive: -45.9% |
| Cc1occc1-c1nnc(SCC(=O)Nc2ccccc2)n1C | inactive: -5.54% |
| CCOc1ccc(S(=O)(=O)N(C)CC(=O)NCCN2CCOCC2)cc1 | inactive: -15.3% |
| Cc1cc(/C([O-])=C(/C(=S)Nc2ccc(F)cc2)[n+]2ccccc2)c(C)n1Cc1ccccc1Cl | inactive: 4.27% |
| Cc1cccc(S(=O)(=O)NCCNS(=O)(=O)c2cccc(C)c2)c1 | inactive: 1.71% |
| Cc1cc(F)ccc1S(=O)(=O)Nc1ccccc1C(=O)NC1CCN(Cc2ccccc2)CC1 | inactive: -2.05% |
| COc1cccc(CNC(=O)CN(C)S(=O)(=O)c2cnc[nH]2)c1 | inactive: -4.78% |
| COc1ccc(/C(C)=N/NC(=O)Cc2c(C)nc(C)[nH]c2=O)cc1 | inactive: -23.9% |
| Cc1ccc(S(=O)(=O)N2CC(=NN=C(N)N)C2)cc1 | inactive: 5.02% |
| COc1cccc(CN2CCNC(=O)C2CC(=O)N(C)Cc2cnccn2)c1OC (stereo not drawn) | inactive: -4.56% |
| COc1ccc(-c2c(C#N)c(SCC(=O)Nc3ccccc3C)nc(C)c2C(=O)Nc2ccccc2)cc1OC | inactive: 2.3% |
| CC1CCCN(C(=S)SCC(=O)O)C1 (stereo not drawn) | inactive: 17% |
| O=C(c1ccc(F)cc1F)N1CCCC(c2nc(-c3ccc(F)cc3)no2)C1 (stereo not drawn) | inactive: 15.2% |
| Cc1cc(C)cc(OCC(=O)OC/C(O)=C(\C#N)c2nc3ccccc3[nH]2)c1 | inactive: 1.84% |
| NC(=O)C1CCN(C(=O)CC2(CC(=O)O)CCCC2)CC1 | inactive: -9.99% |
| COc1ccc(OC)c(S(=O)(=O)NC(=O)C2(C)CCN2C(=O)Cc2ccccc2Cl)c1 (stereo not drawn) | inactive: 4.44% |
| COc1ccc(/C=C/C(=O)NCc2ccc(F)cc2)cc1S(=O)(=O)N1CCOCC1 | inactive: 22.4% |
| O=C(NN1CCN(Cc2ccccc2)CC1)c1ccc(N2CCOCC2)c([N+](=O)[O-])c1 | inactive: 14.8% |
| O=C(C1=C(O)C(=O)N(CC2CCCO2)C1c1ccccc1Cl)c1ccco1 (stereo not drawn) | inactive: -20% |
| CN(c1ccccc1C(=O)Nc1ccc(F)c(F)c1)S(C)(=O)=O | inactive: 9.86% |
| Cn1cc(CN2CCCC(CNC(=O)c3ccc4c(c3)OCO4)C2)c2ccccc21 (stereo not drawn) | inactive: 7.27% |
| Cc1nc(N2CCN(c3ccccn3)CC2)c2c(C)c(C(=O)Nc3ccc(F)cc3)sc2n1 | inactive: -14.7% |
| OCCC1CN(Cc2ccc3nsnc3c2)CCN1C1CCCCC1 (stereo not drawn) | inactive: 2.01% |
| Cc1ccc(NC(=O)COC(=O)CSC(=S)N2CCOCC2)cc1 | inactive: -5.32% |
| CCCC12C(=O)C(C)(C(c3ccccc3)=C1c1ccccc1)C1C(=O)N(c3ccc(C)cc3)C(=O)C12 (stereo not drawn) | inactive: 2.6% |
| Cc1csc(NC(=O)Cc2c(F)cccc2Cl)n1 | inactive: 19.5% |
